Source: PubChem BioAssay AID1347073 (National Center for Advancing Translational Sciences (NCATS), 2019)
Screen size: about 45,000 compounds; about 200 (0.44%) were called active. Not shown: some 7% with an inconclusive outcome. Calls come from the whole dose curve; as a rule, active = well fitted activation curve with a large enough effect; inconclusive = small, poorly fitted or top-dose-only effect; inactive = no such curve, though single readings can be large or run the other way. Some of the results follow.

Experiment: qHTS of TDP-43 Inhibitors: NCGC Sytravon Library Screen; note: nearly all actives have a fitted effect of over 55% in size; for growth rescue (activation): 0% is about no effect
Conditions: yeast TDP-43 toxicity rescue, BacTiter-Glo growth, 24 h; series mostly up to 46.1 µM; growth rescue (activation): at the top concentration
Procedure, shortened: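 TDP-43-expressing yeast, pregrown in raffinose, seeded at OD600 0.02 in galactose medium with compound for 24 hr at 30 deg C. Growth read by BacTiter-Glo luminescence, so rescue of toxicity appears as activation.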
Potency is the fitted concentration of half-maximal effect.

Structure (SMILES)	growth rescue (activation)	Potency
COC(=O)c1ccc(C2C(C(=O)Nc3ccccc3C)=C(C)Nc3ncnn32)cc1 (stereo unspecified)	inactive: 12.5%	
O=C(O)CCCNC(=O)c1nn(Cc2ccccc2)c(=O)c2ccccc12	inactive: 0.0751%	
CCOc1ccc(/C=N/NC(=O)CSc2n[nH]c(=O)[nH]c2=O)cc1OC	inactive: 4.63%	
Cc1ccc(Nc2c(-c3ccc(N(C)C)cc3)nc3ncccn23)cc1	inactive: 11.7%	
Cc1cc(C)n(C(C)CNS(=O)(=O)c2ccccc2)n1 (stereo unspecified)	inactive: 3.22%	
CC(C)=CCC/C(C)=C/C=N/NC(=O)c1cccc([N+](=O)[O-])c1	inactive: 7.47%	
O=S(=O)(Nc1ccccn1)c1cnc(Cl)c(Br)c1	inactive: -6.26%	
O=C(c1cc(-c2ccc(Cl)cc2Cl)on1)N1CCCCCC1	inactive: -26.1%	
CC(=O)Nc1cc(C(=O)N(C)Cc2ccco2)ccc1Sc1ccc(C)cc1	inactive: 8.32%	
CCC(=O)N1CCN(c2ccc(NC(=O)c3ccc4ccccc4c3)cc2)CC1	inactive: -0.155%	
COc1ccc(N/C=C\C(=O)c2ccc3c(c2)OCO3)cc1OC	inactive: 6.8%	
Cc1ccc(S(=O)(=O)Nc2ccc(S(=O)(=O)Nc3nccs3)cc2)cc1C	inactive: 0.235%	
CCOc1ccccc1NC(=O)N1CCCC1C(=O)NCc1cccs1 (stereo unspecified)	inactive: 14.7%	
CCc1ccc(NC(=O)C(C)OC(=O)/C=C/c2ccc(O)c(OC)c2)cc1 (stereo unspecified)	inactive: -7.45%	
COc1ccc(-c2cn3cccnc3n2)cc1F	inactive: 23%	
Cc1ccc(NC(=O)C2CC(=O)Nc3nc4ccccc4n32)c(C)c1 (stereo unspecified)	inactive: -10.3%	
CC(C)Oc1ccc(CNC(=O)C2CCN(C(=O)c3sccc3-n3cccc3)CC2)cc1	inactive: 9.14%	
CC(C)(C)Nc1c(-c2ccc(O)cc2)nc2ccc(Cl)cn12	inactive: 8.77%	
OC(c1cccc(Cl)c1)c1ncc(-c2cccc3ccccc23)[nH]1 (stereo unspecified)	inactive: -12.7%	
O=C(CN1C(=O)C(=O)N(Cc2ccco2)C1=O)Nc1ccccc1	inactive: 20%	
O=C(c1cc(S(=O)(=O)N2CCOCC2)c(Cl)cc1Cl)N1CCCC1	inactive: 0.337%	
Cc1ccc(CNC(=O)COC(=O)[C@@H]2CC(O)CN2S(=O)(=O)c2ccc3c(c2)OCCO3)cc1 (stereo partly specified)	inactive: 0.161%	

Structure (SMILES)	growth rescue (activation)	Potency
O=C(CNS(=O)(=O)c1cccs1)N1CCCCC1	inactive: 2.07%	
O=C(COc1nc2ccccc2nc1N1CCOCC1)N1CCc2ccccc21	inactive: 20.4%	
O=C(Nc1ccc(F)cc1)C(Cc1ccccc1)n1cccc1 (stereo unspecified)		active: 12.6 µM
O=C(COc1ccc(-n2cnnn2)cc1)Nc1ccc(Br)cc1F	inactive: 28.4%	
CCOCCOC(=O)c1ccc(NC(=O)c2cc3ccccc3o2)cc1	inactive: 12.1%	
O=C(CC1C(=O)NCCN1CC1CCCCC1)NCCCN1CCOCC1 (stereo unspecified)	inactive: 19.6%	
Cc1ccc(OCC(=O)NCCNC(=O)c2ccccn2)cc1	inactive: 0.0582%	
CCCCn1c(=O)[nH]c(=O)c2c1nc(-c1ccccc1F)n2Cc1ccccc1	inactive: 15.3%	
COc1ccc(-n2ccc(=O)c3c2CCCC3=O)cc1	inactive: -0.581%	
CCCCCCNC(=O)C(C#N)c1nc2ccccc2nc1N1CCOCC1 (stereo unspecified)	inactive: -13.2%	
COc1ccc(Br)cc1/C=N/NC(=O)CN1CCN(Cc2ccccc2)CC1	inactive: -11.9%	
CC(C)N1C/C(=C/c2ccsc2)C(=O)/C(=C/c2ccsc2)C1	inactive: -10.4%	
COc1cc(NC(=O)CN(C)Cc2ccc(OC(F)F)cc2)c(C)cc1[N+](=O)[O-]	inactive: -0.346%	
Cc1sc2nc(SCC(=O)N(C)c3ccccc3)n(C)c(=O)c2c1C	inactive: -3.9%	
Cc1ccc2c(c1)N(CC(=O)N1CCN(c3ccccc3)CC1)C(=O)C(C)O2 (stereo unspecified)	inactive: 26.2%	
Cc1nnc(SCC(=O)Nc2cc(S(C)(=O)=O)ccc2Cl)n1Cc1ccccc1	inactive: 3.91%	
Cc1ccc(Cn2nnc3c(=O)[nH]c(C4CCN(S(=O)(=O)/C=C/c5ccccc5)CC4)nc32)cc1	inactive: 10.8%	
Cc1ccccc1C1CCCN(Cc2nc(CC3CC3)no2)C1 (stereo unspecified)	inactive: 16.9%	
CCCC(=O)Nc1ccc(C(=O)Nc2ccc([N+](=O)[O-])cc2OC)cc1	inactive: 0.498%	
COCCCNC(=S)N1CCN(C(c2ccccc2)c2ccccc2)CC1	inactive: 1.33%	
CCOC(=O)/C(=C/c1ccccc1)NC(=O)c1ccco1	inactive: -1.01%	
CCc1ccccc1NC(=O)c1ccc(S(=O)(=O)N2CCCC2)cc1	inactive: 0.0459%	

Structure (SMILES)	growth rescue (activation)	Potency
COc1ccc(NC(=O)c2ccccc2NC(=O)c2ccco2)cc1	inactive: 14.7%	
C/C(=N/NC(=O)C(C)n1nc(C)c([N+](=O)[O-])c1C)c1ccc(OCC(N)=O)cc1 (stereo unspecified)	inactive: -0.392%	
Cc1cc(C(=O)N/N=C2\CC(=O)CC(C)(C)C2)c(C)n1-c1ccc(F)cc1	inactive: -15.3%	
Cc1cc(S(=O)(=O)N2c3ccc(F)cc3CCC2C)ccc1-n1cnnn1 (stereo unspecified)	inactive: -6.26%	
CN(CCC#N)C(=O)COC(=O)c1cc(Cl)cc(Cl)c1N	inactive: -4.88%	
Nc1cccc2c1C(=O)N(CCOc1ccc(F)cc1)C2=O	inactive: 17.1%	
COc1ccc(Cc2nnc(NC(=O)CS(=O)(=O)c3ccc(C)cc3)s2)cc1OC	inactive: -9.96%	
Cc1cc(C)c(C)c(S(=O)(=O)NNC(=O)c2cccc(S(=O)(=O)N3CCOCC3)c2)c1C	inactive: -14%	
Cc1nc2ccc(NC(=O)c3ccc([N+](=O)[O-])cc3)cc2s1	inactive: 18.4%	
CCOC(=O)N/N=C\C=C\c1ccc2c(c1)OCO2	inactive: 16.2%	
CC(C(=O)Nc1ccccc1)N(C)CCOc1ccccc1 (stereo unspecified)	inactive: 8.22%	
O=C(CCCOc1ccc(Cl)cc1Cl)NNC(=O)c1ccc(NC(=O)c2ccccc2)cc1	inactive: 6.27%	
COc1cc(C(C(=O)Nc2c(C)cccc2C)N(C)C(=O)c2ccc(-n3cnnn3)cc2)ccc1O (stereo unspecified)	inactive: -12.3%	
Cc1ccccc1-c1nc(C#N)c(NCc2ccco2)o1	inactive: 0.927%	
Cc1ccc(C(C)C)cc1OCC(=O)NCCCn1ccnc1	inactive: -4.82%	
CCC1CCCCN1Cc1nc(Cc2ccccc2Cl)no1 (stereo unspecified)	inactive: 17.4%	
CCCc1ccc(Oc2cc(Cl)nc(N)n2)cc1	inactive: 22.6%	
O=C(c1ccc(S(=O)(=O)N2CCCC2)cc1)N1CCN(c2ccccc2)CC1	inactive: 20.9%	
Cc1ccc(OCc2nc3ccccc3[nH]2)cc1	inactive: -1.44%	
O=C(Nc1cccc(C(=O)O)c1)Nc1ccccc1Cl	inactive: -8.27%	
COc1ccc(NC(=O)c2ccc(S(=O)(=O)N3CCCCCC3)cc2)c(OC)c1	inactive: 2.26%	
CCCC(=O)NC(=S)Nc1cccc(-c2nc3ncccc3o2)c1	inactive: 8.41%	

Structure (SMILES)	growth rescue (activation)	Potency
COc1ccc(-c2nn3c(-c4ccc(OC)cc4)nnc3c3ccccc23)cc1	inactive: 11.1%	
Cc1ccc2c(c1)cc(C(=O)Nc1ccccc1C)n2C	inactive: 6.7%	
CC(C)CN(C(=O)COC(=O)c1ccccc1SCC(=O)NC1CCCCCC1)C1CCS(=O)(=O)C1 (stereo unspecified)	inactive: 9.68%	
O=C(c1nc2ccccn2c1CNCCCn1ncc2ccccc21)N1CCCC1	inactive: 7.6%	
CC(NC(=O)COC(=O)C12CC3CC(CC(Br)(C3)C1)C2)c1ccccc1 (stereo unspecified)	inactive: 5.28%	
CCC(C)c1ccccc1NC(=O)COC(=O)C1=COCCO1 (stereo unspecified)	inactive: 15.4%	
CCOC(=O)CNC(=O)/C=C/c1c(Cl)cccc1Cl	inactive: 26.8%	
O=C(NCCN1C(=O)S/C(=C\c2cccnc2)C1=O)c1cccc(OC(F)F)c1	inactive: 5.25%	
CCOC(=O)N1CCN(C(=S)NC(=O)c2c(-c3c(Cl)cccc3Cl)noc2C)CC1	inactive: 24.2%	
CCOc1ccccc1Nc1nnc(SCC(=O)N(C)C2CCS(=O)(=O)C2)s1 (stereo unspecified)	inactive: -1.82%	
CNc1ccccc1C(C)(C)c1cc(-c2ccc(F)cc2)no1	inactive: 6.42%	
Cc1ccc(NC(=O)CSc2nn(-c3ccc(Cl)cc3)c(=S)s2)cc1S(=O)(=O)N(C)C	inactive: 15.3%	
NS(=O)(=O)c1cccc(NC(=O)CCCC2CCCCC2)c1	inactive: 2.31%	
O=C(NCc1ccco1)/C(=C/c1ccco1)NC(=O)c1ccccc1	inactive: -1.99%	
O=C(C1CCN(S(=O)(=O)c2ccccc2)CC1)N1CCN(Cc2ccccc2)CC1	inactive: 14.1%	
CC(=O)Nc1ccc(S(=O)(=O)N[C@@H](C)C(=O)OCC(=O)c2ccc[nH]2)cc1	inactive: 5.94%	
CCCCCCCCn1c2c(c(=N)c3c1CCC3)CCCC2	inactive: -13.8%	
O=C(NCCc1ccccc1)c1ccc2c(=O)[nH]c3c(C(=O)NCC4CCCO4)sc(=S)n3c2c1 (stereo unspecified)	inactive: 6.09%	
CC1CCN(CCCN2C(=O)C3C(C(=O)Nc4ccc(Cl)cc4)C4C=CC3(O4)C2C(=O)NC2CCCCC2)CC1 (stereo unspecified)	inactive: 1.26%	
Cn1c(-c2ccc([N+](=O)[O-])cc2)nc2ccccc21	inactive: 10.3%	
O=c1oc2ccccc2cc1-c1cn2ccccc2n1	inactive: -7.52%	
CCN(CC)c1ccc(/C=N/NC(=S)NCc2ccccc2)c(O)c1	inactive: -21.9%	

Structure (SMILES)	growth rescue (activation)	Potency
CCOc1ccc(Oc2cc(N)cc([N+](=O)[O-])c2)cc1	inactive: 8.52%	
COc1ccc(-c2csc(NC(=S)NC(=O)c3cccs3)n2)cc1OC	inactive: 17.6%	
O=S(=O)(/C=C/c1ccccc1)N1CCN(c2nc(-c3cccnc3)nc3ccccc23)CC1	inactive: -1.18%	
CCCC(=O)OCCNc1cc(SCCC(=O)OC)c2nonc2c1[N+](=O)[O-]	inactive: -7.65%	
O=S(=O)(Nc1cccnc1Cl)c1ccc(F)cc1	inactive: 3.77%	
CCc1ccc(-n2c(SCC(=O)Nc3cccc(S(=O)(=O)NC4=NCCCCC4)c3)nc3ccccc3c2=O)cc1	inactive: -3.27%	
COc1ccc(CN(CCC(c2ccc3c(c2)OCO3)c2ccccc2OC)C(C)=O)cc1 (stereo unspecified)	inactive: 12.1%	
c1ccc2sc(NCC3CCCO3)nc2c1 (stereo unspecified)	inactive: 16.5%	
Cc1sc(NC(=O)CN(CCc2ccccc2)C(=O)C2CC2)c(C(N)=O)c1C	inactive: 5.39%	
CCN(Cc1ccccc1)C(=O)COC(=O)c1cc(S(=O)(=O)Nc2c(C)n(C)n(-c3ccccc3)c2=O)ccc1C	inactive: 14.7%	
CC(C)(C)c1ccc(S(=O)(=O)N2CCCC2C(=O)N2CCOCC2)cc1 (stereo unspecified)	inactive: -5.36%	
CC(NC(=O)c1ccc(OC2CCN(C(=O)c3cccnc3)CC2)cc1)C1CC1 (stereo unspecified)	inactive: 11.4%	
CN(CCCNC(=O)CSc1cc(=O)n(C)c2ccc(Cl)cc12)Cc1ccccc1	inactive: 4.46%	
CCOC(=O)c1ccc2nc(C)c3c(c2c1)OC(C)C3 (stereo unspecified)	inactive: -17%	
CCOC(=O)C1CCN(CC(O)COCc2ccccc2)CC1 (stereo unspecified)	inactive: 1.96%	
CCOc1ccc(CN(C)C(=O)CNC(=O)C2CCCCC2)cc1OC	inactive: -2.33%	
COc1ccccc1-c1ccc(=O)n(CC(=O)NCc2ccco2)n1	inactive: -7.65%	
CN1CCN(c2ncnc3c2ncn3[C@H]2CN(Cc3ccc4c(c3)OCO4)C[C@@H](CO)O2)CC1	inactive: 5.29%	
